The text below walks through data of PubChem BioAssay (Tox21).

A short description of assay [1]: p53 small molecule agonists, cell-based qHTS assay with rat liver microsomes (AID 1963578). From the text: U.S. Tox21 Program National Center for Advancing Translational Sciences [NCATS] Division of Preclinical Innovation [DPI] U.S. Environmental Protection Agency [EPA] National Institutes of Environmental Health Sciences [NIEHS] National Toxicology Program [NTP] U.S. Food and Drug Administration [FDA] Tox21 Assay Overview: p53, a tumor suppressor protein, is activated following cellular insult, including DNA damage and other cellular stresses. The activation of p53 regulates cell fate by inducing DNA repair, cell cycle arrest, apoptosis, or cellular senescence. The activation of p53, therefore, is a good indicator of DNA damage and other cellular stresses. […] The activation of the reporter gene under culture conditions can be detected by fluorescence intensity. This cell line was used to screen the Tox21 10K compound library in the condition of presence of rat liver microsomes and to identify agonists that activate the p53 signaling pathway after in vitro metabolic activation (Ooka et al., Archive of Toxicology 96:1975-1987, 2022).
Tox21 Assay Protocol Summary: The p53RE-bla cells were dispensed at 4,000cells/3ul/well in 1536-well black-clear bottom plates. After the assay plates were incubated at 37 C, 5% CO2 incubator for 5 hours, 23 nL of compounds dissolved in DMSO, positive controls or DMSO only was transferred to the assay plate. […]

The nature of assay [2]: cAMP Responsive Elements (CRE) small molecule antagonists, cell-based qHTS assay (AID 1963591; active means well fitted inhibition curve with a large enough effect in the signal ratio in the repeat runs, not every such curve was filed as active; the % refers to the signal ratio). In short, it runs like this: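 Stimulation used NKH477 at a final 0.25 uM for 3 h in compound-treated CRE-bla HEK293T cells, seeded 18 h beforehand. Reporter activity was measured with LiveBLAzer B/G FRET substrate after 2 h at room temperature.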

Inconclusive results are not listed. Unless noted, the call rests on the fitted dose curve. More than one record can exist for a structure, and the calls need not agree. Certain results were filed several times, with different values. This is not the full list of results. There may be further records. Results that share an entry are repeats in other runs, samples, wells, individuals or studies. Marks in square brackets tell the records apart. Letters count within one entry.
Potency means the concentration at half of the fitted maximal effect.

As to `C1=Cc2cccc3cccc1c23`, the Potency entry in assay [1] was “active: 35.7 µM [sample A] and inactive [sample B]”.
With `CCOS(=O)(=O)OCC`, the Potency result in assay [1] was “active: 23 µM [sample A] and inactive [sample B]”.
As for `OC(c1ccc(Cl)cc1)(c1cncnc1)c1ccccc1Cl` (stereo not drawn), the Potency result in assay [2] is “active: 55.4 µM [sample A] and inactive [sample B]”.
